# In patent US20260250410A1, “ANTIBODY AND USE THEREOF” (SICHUAN HUIYU PHARMACEUTICAL CO., LTD., priority 2022, published 2026):
# Assay: Thermal stability of ADC molecules (UNcle: Tm, Tagg, DLS)
# Assay type: physicochemical
# Details: 1CP-152-MMAE vs CD27H10-MMAE
# Experimental: The denaturation temperature (I'm value), aggregation temperature (Tagg value) and hydration kinetic diameter of ADC molecules were measured by UNcle multifunctional protein stability analysis system. Wherein, the Tm value was based on endogenous fluorescence spectroscopy method, and was fitted and calculated according to BCM algorithm, the Tagg value was measured by static light scattering (SLS) technology, and the hydration dynamics diameter was measured by dynamic light scattering (DLS) technology. • SEC purity detection: The purity of ADC molecules was analyzed by high performance liquid chromatography (HPLC). • Liquid chromatograph: Shimadzu LC-2030C Plus • chromatographic column: TSKgel G3000SWXL, 7.8×300 mm, 5 μm, TOSOH • mobile phase: 61 mmol/L Na2HPO4, 39 mmol/L NaH2PO4, 200 mmol/L NaCl, pH6.8 • flow rate: 1.0 ml/min • Detection wavelength: UV 220 nm • column temperature: 30° C. • Sample chamber temperature: 10° C. • Injection volume: 20 μg • Isocratic running time: 30 min
molecule,measurement,value
"1CP-152-MMAE: humanized antibody 1CP-152 linked to vc-MMAE, target DAR 4 (conjugate) heavy: EVQLVESGGGLVQPGRSLRLSCTTSGLTFTHYHMSWVRQAPGKGLEWVAIIRNKAYGYTTDYSASVRGRFTISRDDSKSILYLQMNSLKTEDTAVYYCVREGGYGYDGTFAYWGQGTLVTVSS[left out - human IgG1 constant region] light: DIQMTQSPSSLSASVGDRVTITCRASESVDNYGISFMNWFQQKPGQAPKLLIYAASNQGSGVPSRFSGSGSGTDFTLTISSMQPEDFATYYCQQSKEVPRTFGGGTKVEIKRTVAAPSVFIFPPSDEQLKSGTASVVCLLNNFYPREAKVQWKVDNALQSGNSQESVTEQDSKDSTYSLSSTLTLSKADYEKHKVYACEVTHQGLSSPVTKSFNRGEC",difference in Tagg values between the two,4 °C
